In PubChem BioAssay AID1814 (Broad Institute, 2009):
Among all 300,000 compounds or so, about 22,000 (7.3%) were called active. The inconclusive results got no clear call from the source; some entries with a clear call stand among them for comparison. Cut-off read from the data, not from the text of the source: active = activity score below about -60%; inconclusive = mostly about -28% to -61%; inactive = positive scores.

Assay: Activators via SNCA 5'UTR binding, MLPCN (AID 1814)
Details: alpha-synuclein 5'UTR reporter, activators screen; hits give low values; tested at 7.5 µM

SMILES | activity score
O=C(Cn1nc(CNc2ccc(Cl)cc2)[n+]2c1CCCCC2)c1ccc(Cl)cc1 | inconclusive: -44%
COC(=O)c1c(C)oc2ccc(N(C(=O)c3ccncc3)S(=O)(=O)c3ccc(C)cc3)cc12 | inactive: 110%
CCOC(=O)c1c(Cc2ccc(Cl)cc2)c[nH]c1C | active: -90.9%
COc1ccccc1NC(=S)NCc1ccccn1 | active: -80.3%
COc1cc([N+](=O)[O-])ccc1NC(=S)NC(=O)CC(C)(C)C | inconclusive: -34.3%
CCOC(=O)c1ccccc1NC(=O)CSc1ccc(-c2ccccn2)nn1 | inactive: 68.7%
Cc1cccc(NC(=O)CN(C)S(=O)(=O)c2cccs2)c1 | inconclusive: -53.9%
O=C(Nc1ccc(-c2nc3cc(Cl)ccc3o2)cc1)C1CCCO1 (stereo not drawn) | active: -81%
COc1ccc(C(=O)c2oc3ccc(OC)cc3c2N)cc1 | active: -167%
Cc1ccc(-c2ccc(CCC(=O)O)o2)cc1 | inconclusive: -56.1%
O=C(Nc1cccc(Cl)c1)c1cnc[nH]1 | active: -86.9%
Cc1cc(C2=NNC(=NC3CC3)SC2)c(C)n1-c1ccccc1F | inactive: 99.4%
CCOC(=O)/C(=N/Nc1ccc(OC)cc1)Sc1nnc(CCc2ccccc2)n1-c1ccccc1 | inconclusive: -60.3%
Cc1cc(C)cc(NC(=O)/C(C#N)=C/c2cn(CC(=O)NCc3ccco3)c3ccccc23)c1 | inactive: 111%
CC(=O)Oc1ccc(OC(C)=O)c(SCCCCCCl)c1 | inconclusive: -60.2%
COCCNC(=O)c1cc(-c2ccccc2OC)on1 | inconclusive: -60.9%
O=C(CNC(=O)c1ccccc1Cl)c1ccccc1 | active: -113%
NC(=O)COc1c(-c2ccc(Br)o2)oc2ccccc2c1=O | active: -62.4%
COC(=O)CN1C(=O)COc2ccc(S(=O)(=O)NCc3ccc(F)cc3)cc21 | inconclusive: -38.4%
CS(=O)(=O)N1CCN(c2nc3ccc(Cl)cc3s2)CC1 | active: -98.9%
COc1cccc(N(C(=O)c2nc3nccc(C)n3n2)c2nc3ccccc3s2)c1 | active: -185%
CSc1ccc(CN(C)C(=O)c2cc3ccccc3o2)cc1 | active: -67%
Cc1noc(C)c1COc1ccc(C(=O)OCC(=O)Nc2ccc3ccccc3c2)cc1 | inconclusive: -42.4%
O=C(CN1C(=O)COc2ccccc21)NCc1ccccn1 | inconclusive: -30.2%
Cc1ccccc1CS(=O)(=O)c1ncc(Cl)c(C(=O)Nc2ccc(F)cc2)n1 | inactive: 64.2%

SMILES | activity score
FC(F)(F)c1nnc2ccc(Sc3ccccn3)nn12 | inconclusive: -27.3%
CCOC(=O)c1ccc(NC(=S)N2CCCC2)cc1 | inconclusive: -54.3%
CCCCSc1nc(C)cc(SCC(=O)N/N=C/c2cccc(OC)c2O)n1 | inactive: 81.1%
Cc1nnsc1C(=O)N/N=C/c1ccc2ccccc2c1O | inactive: 120%
COc1ccc2[nH]c3nc(SC(C)C)nnc3c2c1 | inactive: 58.3%
Cc1cc(-c2nc3ccccc3o2)c2ccccc2n1 | inconclusive: -30.9%
S=C(Nc1cc(Cl)cc(Cl)c1)NC1CCN(Cc2ccccc2)CC1 | inactive: 72%
CCSc1nnc(-c2ccccc2SC)o1 | inconclusive: -54.8%
Cc1cccc(/C=C2\CCC(=C3SCCCS3)C2=O)c1 | inactive: 85.2%
C=CCNc1nc(N)c([N+](=O)[O-])c(N2CCCCCC2)n1 | inactive: 69.3%
Brc1ccccc1C1=Nn2c(nnc2-c2ccccc2)SC1 | inactive: 57.5%
Cc1onc(-c2ccccc2Cl)c1C(=O)N1CCN(c2cccc(Cl)c2)CC1 | inactive: 67.3%
Cc1[nH]c2ccccc2c1C(=O)NS(=O)(=O)Nc1ccc(Cl)cc1 | active: -81.7%
N#Cc1cc2cc3c(cc2nc1SCC(=O)N1CCOCC1)OCCO3 | inactive: 110%
O/N=C/c1ccc(OCc2ccccc2)c(Cl)c1 | active: -104%
CC(=O)N1CCCN(Cc2nc(C3(c4ccc(C)cc4)CCCC3)no2)CC1 | inconclusive: -46.7%
O=C(NC1CCCCCCC1)c1ccc(CNc2c(N3CCOCC3)c(=O)c2=O)cc1 | inconclusive: -42.6%
CC(C)C1N=C(c2ccc3c(c2)OCO3)CC(c2ccccc2O)N1 (stereo not drawn) | active: -300%
c1ccc(N2CCN(c3ccccc3)C2c2cccs2)cc1 | active: -108%
O=C(c1ccccc1)c1ccc2nc[nH]c2c1 | inconclusive: -60.5%
O=[N+]([O-])c1cc(CN2CCN(c3ccccc3)CC2)c(O)c2ncccc12 | inactive: 82%
CCOC(=O)c1oc2cccc(O)c2c1C | active: -80.8%
O=C(NCCc1ccccc1)c1ccc(NCC2CCCO2)c([N+](=O)[O-])c1 (stereo not drawn) | inconclusive: -55.2%
O=C(N=Nc1c(O)n(Cc2ccccc2)c2ccccc12)c1ccc(O)cc1 | inconclusive: -58.1%
Cc1cnc(NC(=O)COc2ccccc2Cl)s1 | inactive: 82%

SMILES | activity score
CN(C)c1ccc(-c2nnn(Cc3ccccc3Br)n2)cc1 | active: -65.8%
Clc1ccc(Nc2ccccc2)nn1 | inconclusive: -35%
Cn1c(SCC(=O)c2ccccc2)nnc1-c1ccncc1 | inconclusive: -31.4%
O=C(Nc1ccccc1)Nc1nnc(-c2ccccc2)o1 | active: -63.3%
c1ccc(-c2nnnc3ccccc23)cc1 | active: -165%
O=C(O)Cc1sc(NC2CCCCC2)nc1-c1ccc(Cl)cc1 | inconclusive: -56.4%
O=c1c2ccccc2nc2ccccn12 | inconclusive: -57%
Nc1c(C(=O)c2ccccc2)oc2ccccc12 | inconclusive: -58.2%
COc1cccc(/C=N/Nc2ncc(C(F)(F)F)cc2Cl)c1O | inactive: 76.7%
Cn1cccc1/C=C1\SC(=Nc2ccc(O)cc2)NC1=O | inconclusive: -47.1%
Cc1ccc(Nc2nc(Cl)nc(NC3CCCCC3)n2)cc1 | inconclusive: -53.4%
CCOc1ccc(-c2c(C(=O)N/N=C/c3ccncc3)nnn2-c2nonc2N)cc1 | inconclusive: -48.5%
COC(=O)Nc1ccc2c(c1)Nc1ccccc1CC2 | inconclusive: -60.3%
COc1ccc(NC(=O)CSc2nccn2Cc2ccccc2)cc1 | inconclusive: -55.7%
O=C1/C(=C\c2ccccc2)SC(=S)N1CCC(=O)N1CCCCC1CCO (stereo not drawn) | inconclusive: -47.1%
N#CC1=C(N)Oc2cc(N)ccc2C1c1cccc(Br)c1 (stereo not drawn) | inactive: 119%
C/C(=N\NC(=O)C1(C)CC1(Br)Br)c1ccc(NC(=O)c2ccc(C)o2)cc1 (stereo not drawn) | inconclusive: -55.9%
CC1(C)Cc2nc3sc4c(N(CCO)CCO)nnnc4c3cc2CO1 | inconclusive: -46.4%
CCc1ccc(NC(=O)C(=O)NNC(=O)c2cccs2)cc1 | inconclusive: -59.7%
COc1ccc(OCc2cccc(C(=O)NN)c2)cc1 | inactive: 67.4%
Nc1c(C(=O)Nc2ccc3c(c2)OCCO3)nnn1Cc1cccc(F)c1 | active: -176%
Nc1nc2ccc(NC(=O)c3ccco3)cc2s1 | active: -116%
CCOC(=O)c1ccc(N=NN(C)C)cc1 | active: -156%
O=C(NCC1CCCO1)c1ccc(N2CCCCC2)c([N+](=O)[O-])c1 (stereo not drawn) | inconclusive: -59.1%
COc1ccccc1-c1nc(-c2ccncc2)no1 | active: -123%

SMILES | activity score
COc1ccc(NC(=S)NC(=O)CC(C)C)c(OC)c1 | inconclusive: -59%
Cc1ccc(-n2nc(C)c(NC(=O)CCl)c2C)cc1 | active: -146%
COc1ccccc1Cc1nc(-c2ccncc2)no1 | inconclusive: -45.8%
COCCNC(=O)c1ccc(-c2csc(C)n2)cc1 | active: -64%
CCOc1ccc(-c2cc(CCCC(=O)NCCc3ccccc3)no2)cc1 | inactive: 62.2%
O=C(CN1CCOCC1)Nc1ccc2c(c1)OCCO2 | inconclusive: -44.2%
CCC(=O)NC(=S)Nc1ccc(NC(=O)COc2ccc(Cl)cc2Cl)cc1 | inconclusive: -58%
C=CCOC(=O)/C(=C\c1ccccc1)NC(=O)c1ccc(C)cc1 | active: -175%
COC(=O)/C(C#N)=C/c1c(N2CCN(c3ccccc3)CC2)nc2ccccn2c1=O | active: -65%
Cc1cccc(NC(=S)N(CCCN(C)C)Cc2cc3cc4c(cc3[nH]c2=O)OCO4)c1 | inconclusive: -53.5%
CCSc1nnc2ccc(-c3ccc(OC)c(OC)c3)nn12 | inactive: 61.7%
O=C(CCn1c(=O)oc2ccccc21)Nc1ccc2c(c1)OCCO2 | inconclusive: -59.2%
O=[N+]([O-])c1ccc(N2CCN(c3ccccn3)CC2)c(Cl)c1 | inconclusive: -46.5%
Cc1ccc(CSc2nnc(SCC(=O)N/N=C/c3ccc(C(=O)O)cc3)s2)cc1 | inactive: 69.5%
CCNc1ccccc(-c2ccc3ccccc3n2)c1=O | active: -186%
CCOc1cc(NC(=S)Nc2cccc(OC)c2)c(OCC)cc1NC(=O)C1CC1 | inconclusive: -43.1%
C/C(=N/Nc1ccnc2cc(Cl)ccc12)c1ccc(O)cc1 | active: -118%
COc1ccc(C(=O)Nc2ccccc2C(=O)N/N=C/c2ccccc2OC)cc1 | active: -124%
Nc1ccc(-c2nc3ncccc3o2)cc1 | inconclusive: -60.3%
N#C/C(=C(/O)COC(=O)CSc1ccc(Cl)cc1)c1nc2ccccc2[nH]1 | inconclusive: -43.5%
CCn1cc(Br)c(C(=O)Nc2ccc(Cl)cc2Cl)n1 | inconclusive: -54.8%
O=C(Nc1nnc(S(=O)(=O)N2CCOCC2)s1)c1ccccc1 | inconclusive: -60.2%
CCc1ccc(C2c3[nH]c4ccccc4c3CCN2C(=O)c2ccc(=O)n(C)n2)cc1 (stereo not drawn) | inconclusive: -48.5%
